The text below walks through data of publication PMC4989220.

By UniProt entry, the sequences of proteins in these tests, tags left out.
UniProt Q14789: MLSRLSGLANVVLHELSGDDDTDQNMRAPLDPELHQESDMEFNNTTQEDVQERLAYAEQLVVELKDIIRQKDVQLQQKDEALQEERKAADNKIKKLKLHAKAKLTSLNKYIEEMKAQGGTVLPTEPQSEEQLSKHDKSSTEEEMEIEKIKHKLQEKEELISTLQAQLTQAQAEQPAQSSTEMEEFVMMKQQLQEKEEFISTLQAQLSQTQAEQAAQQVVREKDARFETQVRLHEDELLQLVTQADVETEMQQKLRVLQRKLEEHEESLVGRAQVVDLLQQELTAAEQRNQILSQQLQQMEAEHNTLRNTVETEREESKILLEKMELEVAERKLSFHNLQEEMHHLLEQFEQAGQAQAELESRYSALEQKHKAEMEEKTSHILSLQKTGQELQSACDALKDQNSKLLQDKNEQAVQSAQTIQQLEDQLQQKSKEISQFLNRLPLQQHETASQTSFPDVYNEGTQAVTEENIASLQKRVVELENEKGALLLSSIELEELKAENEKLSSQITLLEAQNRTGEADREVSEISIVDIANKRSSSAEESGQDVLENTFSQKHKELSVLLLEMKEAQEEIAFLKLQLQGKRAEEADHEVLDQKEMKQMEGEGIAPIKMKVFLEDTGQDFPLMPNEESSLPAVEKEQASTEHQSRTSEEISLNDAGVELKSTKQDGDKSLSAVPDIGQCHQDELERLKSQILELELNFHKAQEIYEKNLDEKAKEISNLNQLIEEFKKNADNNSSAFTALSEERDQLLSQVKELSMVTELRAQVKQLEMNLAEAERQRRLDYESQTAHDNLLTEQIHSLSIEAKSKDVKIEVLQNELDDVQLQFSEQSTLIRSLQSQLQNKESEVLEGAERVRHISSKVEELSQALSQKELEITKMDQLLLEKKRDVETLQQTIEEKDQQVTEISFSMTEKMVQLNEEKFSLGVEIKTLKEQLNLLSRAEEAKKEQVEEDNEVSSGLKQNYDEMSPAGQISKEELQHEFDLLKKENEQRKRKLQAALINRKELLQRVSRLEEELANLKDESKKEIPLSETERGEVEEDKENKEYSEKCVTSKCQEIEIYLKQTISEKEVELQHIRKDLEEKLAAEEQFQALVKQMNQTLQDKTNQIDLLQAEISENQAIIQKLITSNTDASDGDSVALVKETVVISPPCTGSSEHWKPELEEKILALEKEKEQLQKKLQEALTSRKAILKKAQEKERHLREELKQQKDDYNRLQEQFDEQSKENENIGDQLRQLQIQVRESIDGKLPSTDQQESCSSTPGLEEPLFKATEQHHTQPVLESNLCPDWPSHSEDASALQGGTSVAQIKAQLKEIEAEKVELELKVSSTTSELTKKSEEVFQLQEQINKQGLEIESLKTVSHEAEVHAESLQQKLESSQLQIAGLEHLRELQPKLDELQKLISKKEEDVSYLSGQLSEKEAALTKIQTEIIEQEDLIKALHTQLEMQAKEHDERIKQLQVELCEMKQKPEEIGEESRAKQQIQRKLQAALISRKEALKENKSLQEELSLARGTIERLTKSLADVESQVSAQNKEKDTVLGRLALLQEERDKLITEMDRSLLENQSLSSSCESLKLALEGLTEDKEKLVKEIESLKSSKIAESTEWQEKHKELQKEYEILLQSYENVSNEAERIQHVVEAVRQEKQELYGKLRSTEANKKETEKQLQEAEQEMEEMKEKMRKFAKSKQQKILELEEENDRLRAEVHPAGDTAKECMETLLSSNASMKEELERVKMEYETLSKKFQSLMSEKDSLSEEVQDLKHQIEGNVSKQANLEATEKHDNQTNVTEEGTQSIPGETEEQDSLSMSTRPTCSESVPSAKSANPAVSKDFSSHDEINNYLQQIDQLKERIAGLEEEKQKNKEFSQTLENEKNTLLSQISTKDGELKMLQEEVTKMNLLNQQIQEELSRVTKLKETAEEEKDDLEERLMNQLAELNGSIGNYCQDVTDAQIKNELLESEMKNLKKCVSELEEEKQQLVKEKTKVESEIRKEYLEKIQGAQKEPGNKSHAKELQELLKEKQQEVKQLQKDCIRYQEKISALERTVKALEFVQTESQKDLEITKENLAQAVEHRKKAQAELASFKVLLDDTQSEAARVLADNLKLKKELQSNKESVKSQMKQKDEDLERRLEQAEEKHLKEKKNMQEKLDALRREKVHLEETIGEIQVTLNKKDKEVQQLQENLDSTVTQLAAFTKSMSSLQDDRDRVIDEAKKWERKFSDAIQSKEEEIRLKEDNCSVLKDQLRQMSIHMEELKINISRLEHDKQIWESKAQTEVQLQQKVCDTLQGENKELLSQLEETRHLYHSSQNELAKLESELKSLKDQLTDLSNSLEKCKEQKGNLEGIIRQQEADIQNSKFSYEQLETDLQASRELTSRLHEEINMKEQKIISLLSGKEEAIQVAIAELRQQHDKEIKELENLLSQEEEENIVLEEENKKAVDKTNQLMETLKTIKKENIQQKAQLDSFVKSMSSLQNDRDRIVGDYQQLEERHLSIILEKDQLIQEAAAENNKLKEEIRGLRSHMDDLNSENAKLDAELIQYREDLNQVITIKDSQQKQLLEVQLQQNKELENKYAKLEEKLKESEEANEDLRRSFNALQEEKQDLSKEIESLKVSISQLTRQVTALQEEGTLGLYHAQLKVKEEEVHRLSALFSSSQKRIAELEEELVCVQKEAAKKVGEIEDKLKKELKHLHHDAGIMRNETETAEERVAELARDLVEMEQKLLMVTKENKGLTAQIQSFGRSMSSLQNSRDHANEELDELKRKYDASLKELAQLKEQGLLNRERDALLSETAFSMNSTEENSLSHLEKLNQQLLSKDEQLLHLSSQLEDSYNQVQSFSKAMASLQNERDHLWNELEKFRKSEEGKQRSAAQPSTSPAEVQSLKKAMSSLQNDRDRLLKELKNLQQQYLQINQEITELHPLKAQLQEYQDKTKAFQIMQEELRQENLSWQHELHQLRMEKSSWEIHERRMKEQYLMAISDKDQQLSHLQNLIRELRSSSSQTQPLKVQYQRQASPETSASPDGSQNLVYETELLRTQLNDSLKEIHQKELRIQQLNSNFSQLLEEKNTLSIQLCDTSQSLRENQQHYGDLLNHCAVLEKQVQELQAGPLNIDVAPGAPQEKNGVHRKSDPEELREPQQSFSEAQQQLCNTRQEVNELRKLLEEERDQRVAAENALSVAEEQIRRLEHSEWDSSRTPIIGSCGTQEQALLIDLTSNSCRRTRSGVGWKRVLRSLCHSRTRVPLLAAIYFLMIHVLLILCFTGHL
UniProt P35579: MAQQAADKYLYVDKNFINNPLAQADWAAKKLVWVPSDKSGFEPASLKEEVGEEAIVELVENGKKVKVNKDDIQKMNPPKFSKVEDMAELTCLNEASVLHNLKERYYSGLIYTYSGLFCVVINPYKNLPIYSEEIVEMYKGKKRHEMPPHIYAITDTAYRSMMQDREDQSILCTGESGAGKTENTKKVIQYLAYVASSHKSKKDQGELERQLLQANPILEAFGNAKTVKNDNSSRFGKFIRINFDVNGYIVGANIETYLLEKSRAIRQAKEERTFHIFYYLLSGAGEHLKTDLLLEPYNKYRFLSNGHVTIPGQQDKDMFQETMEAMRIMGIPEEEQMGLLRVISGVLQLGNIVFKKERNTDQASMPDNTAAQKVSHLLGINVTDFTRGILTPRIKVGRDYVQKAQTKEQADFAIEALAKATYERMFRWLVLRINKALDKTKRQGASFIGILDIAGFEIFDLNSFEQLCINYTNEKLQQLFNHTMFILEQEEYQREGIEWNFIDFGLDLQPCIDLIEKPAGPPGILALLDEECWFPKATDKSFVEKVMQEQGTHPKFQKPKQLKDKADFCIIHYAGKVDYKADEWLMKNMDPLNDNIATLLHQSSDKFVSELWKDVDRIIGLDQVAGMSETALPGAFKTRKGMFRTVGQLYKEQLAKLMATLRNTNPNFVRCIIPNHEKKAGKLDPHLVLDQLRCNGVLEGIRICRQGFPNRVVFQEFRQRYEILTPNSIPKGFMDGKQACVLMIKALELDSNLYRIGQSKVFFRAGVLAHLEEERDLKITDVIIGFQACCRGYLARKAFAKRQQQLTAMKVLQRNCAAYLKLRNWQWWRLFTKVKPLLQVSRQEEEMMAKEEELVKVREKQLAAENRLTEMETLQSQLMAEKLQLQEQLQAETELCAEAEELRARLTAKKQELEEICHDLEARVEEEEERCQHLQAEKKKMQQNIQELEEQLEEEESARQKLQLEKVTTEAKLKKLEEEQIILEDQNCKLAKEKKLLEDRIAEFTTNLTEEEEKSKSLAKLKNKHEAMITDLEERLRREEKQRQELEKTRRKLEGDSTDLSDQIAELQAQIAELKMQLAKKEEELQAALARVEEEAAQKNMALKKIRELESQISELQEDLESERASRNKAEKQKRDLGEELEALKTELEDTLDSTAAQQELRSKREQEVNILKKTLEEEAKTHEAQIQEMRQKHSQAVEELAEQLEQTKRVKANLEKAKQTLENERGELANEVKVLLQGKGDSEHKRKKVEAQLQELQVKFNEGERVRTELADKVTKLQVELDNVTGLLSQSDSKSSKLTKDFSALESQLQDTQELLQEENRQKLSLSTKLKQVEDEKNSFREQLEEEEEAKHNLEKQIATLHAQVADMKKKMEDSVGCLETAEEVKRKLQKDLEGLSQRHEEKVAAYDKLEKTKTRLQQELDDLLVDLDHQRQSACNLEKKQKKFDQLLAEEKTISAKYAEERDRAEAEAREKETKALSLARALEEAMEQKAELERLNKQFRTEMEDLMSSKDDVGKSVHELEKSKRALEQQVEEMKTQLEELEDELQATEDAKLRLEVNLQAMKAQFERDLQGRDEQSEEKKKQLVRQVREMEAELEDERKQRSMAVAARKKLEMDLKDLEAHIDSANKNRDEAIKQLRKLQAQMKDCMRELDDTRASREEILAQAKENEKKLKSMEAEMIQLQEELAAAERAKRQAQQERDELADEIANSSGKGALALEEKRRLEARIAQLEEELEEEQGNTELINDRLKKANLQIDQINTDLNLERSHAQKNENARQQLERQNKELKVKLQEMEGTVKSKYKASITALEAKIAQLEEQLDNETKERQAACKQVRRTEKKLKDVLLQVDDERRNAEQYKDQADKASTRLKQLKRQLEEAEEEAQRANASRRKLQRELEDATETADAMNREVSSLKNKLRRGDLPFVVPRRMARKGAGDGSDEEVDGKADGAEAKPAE
UniProt P20340: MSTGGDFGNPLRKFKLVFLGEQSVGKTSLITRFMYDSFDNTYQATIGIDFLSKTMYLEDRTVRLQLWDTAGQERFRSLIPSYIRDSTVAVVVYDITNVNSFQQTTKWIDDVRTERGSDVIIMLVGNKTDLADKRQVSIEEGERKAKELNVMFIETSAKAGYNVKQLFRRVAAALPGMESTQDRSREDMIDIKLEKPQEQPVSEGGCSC

Assay [1] addresses giantin (human (endogenous in VA-13, HepG2-derived)) (UniProt Q14789). The experiment in a line: pull-down; in vitro Rab6a capturing: anti-giantin Ab on Dynabeads M-270 Epoxy, incubated with lysate of VA-13 cells overexpressing Rab6(T27N) (4 °C, 12 h), then active Rab6a protein (5 μg, 4 °C, 12 h), washed in PBS; Western blot for giantin and Rab6a; only the binder purified.
For assay [2], the target named is non-muscle Myosin IIA (NMIIA) heavy chain phosphorylated at S1943 (human (endogenous in VA-13, HepG2-derived)) (UniProt P35579). The experiment in a line: co-IP; IP with anti-NMIIA-P-S1943 Ab from lysate of VA-13 cells treated with GOLGB1 (giantin) siRNAs; Western blot with anti-Rab6a Ab; input normalized by Rab6a. (In general: In western blotting, separated proteins are transferred to a membrane and probed.)

For assay [3] the target is unchanged. The experiment in a line: condition: only cells treated with scrambled siRNA (giantin not knocked down); co-IP; IP with anti-NMIIA-P-S1943 Ab from lysate of VA-13 cells treated with scrambled siRNA; Western blot with anti-Rab6a Ab; input normalized by Rab6a.
Assay [4] deals with Rab6a GTPase (human (endogenous in VA-13, HepG2-derived)) (UniProt P20340). The experiment in a line: co-IP; IP with anti-Rab6a Ab from lysate of control (untreated) VA-13 cells; Pierce Co-Immunoprecipitation Kit; Western blot; input normalized by NMIIA-P-S1943 or giantin.
For assay [5] the target is unchanged. In words: co-IP; IP with anti-Rab6a Ab from lysate of VA-13 cells treated with 35 mM EtOH for 72 h; Pierce Co-Immunoprecipitation Kit; Western blot; input normalized by NMIIA-P-S1943 or giantin.
Assay [6] shares this target. In words: proximity ligation; Duolink in situ PLA in control VA-13 cells and hepatocytes from control rats; mouse anti-giantin + rabbit anti-Rab6a, or mouse anti-Rab6a + rabbit anti-NMIIA-P-S1943; cells with more than one red spot counted.
Assay [7] addresses Active human Rab6a full length protein (human) (UniProt P20340). In words: pull-down; in vitro Rab6a capturing: beads with anti-giantin Ab-giantin-active Rab6a incubated at 4 °C for 12 h with lysate of EtOH-treated cells transfected with Rab6(T27N) (holds NMIIA-P-S1943) or with Rab6(T27N) plus NMIIA siRNA (lacks it); Rab6a left on the beads seen by Western blot; only the target purified.

Assay [8] addresses T1, β-galactoside α-2,3-sialyltransferase-1 (ST3Gal1) (human (endogenous in VA-13, HepG2-derived)) (UniProt Q11201).
T1 sequence: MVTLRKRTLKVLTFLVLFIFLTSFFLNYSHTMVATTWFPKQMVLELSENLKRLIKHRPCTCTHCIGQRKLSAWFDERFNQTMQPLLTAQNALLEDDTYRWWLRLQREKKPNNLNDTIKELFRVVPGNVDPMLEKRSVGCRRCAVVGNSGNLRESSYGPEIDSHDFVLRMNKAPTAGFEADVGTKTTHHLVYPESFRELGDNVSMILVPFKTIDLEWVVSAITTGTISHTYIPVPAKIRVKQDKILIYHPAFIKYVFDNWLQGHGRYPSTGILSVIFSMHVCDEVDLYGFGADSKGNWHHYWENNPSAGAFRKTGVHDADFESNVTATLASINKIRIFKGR
In words: co-IP; IP with anti-ST3Gal1 Ab from lysate of control or EtOH-treated VA-13 cells; Western blot for NMIIA-P-S1943 and ST3Gal1.

The target in assay [9] is T2, α-mannosidase II (Man-II) cytoplasmic tail peptide (human).
T2 sequence (peptide, biotin on the N-terminus): AGSMKLSRQ
The experiment in a line: pull-down; N-terminally biotinylated peptides (20 μl, 0.1 mg/ml in 25% acetic acid) mixed with 20-40 μl lysate of EtOH-treated VA-13 cells, 37 °C 1 h, captured on Dynabeads M-280 Streptavidin; Western blot with anti-NMIIA-P-S1943 Ab; only the target purified.

The target in assay [10] is T3, polypeptide N-acetylgalactosaminyltransferase 2 (ppGalNAcT2) cytoplasmic tail peptide (human).
T3 sequence (peptide, biotin on the N-terminus): AGSMRRRSRM
Described as above.

Assay [11] concerns the target T4, core 2 N-acetylglucosaminyltransferase-1 (C2GnT1) cytoplasmic tail peptide (human).
T4 sequence (peptide, biotin on the N-terminus): MLRTLLRRRL
The assay is described as above.

In assay [12] the target is T5, Control peptide Biotin-….
T5 sequence (peptide, biotin on the N-terminus): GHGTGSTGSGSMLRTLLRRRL
The assay is described as above.

Assay [13] has as its target T6, β1,3-N-acetylglucosaminyltransferase 6 (core 3 synthase) cytoplasmic tail peptide (human).
T6 sequence (peptide, biotin on the N-terminus): AGSMAFPCRRSLTAKTL
The assay is described as above.

Assay [14] has as its target T7, β-galactoside α-2,3-sialyltransferase-1 (ST3Gal1) cytoplasmic tail peptide (human).
T7 sequence (peptide, biotin on the N-terminus): AGSMVTLRKRTLKV
The assay is described as above.

These are yes or no findings as the source states them, for the method shown. In cells and extracts the contact can be indirect. Some results given as binding are weak or reduced against the parent protein; the word gives no strength. For part of these data: Where a sequence is shown, tags or fusion partners need not be part of it.

In the case of “Active human Rab6a full length protein (from UniProt P20340 1-208)”, in assay [1], the binding entry is reported as “binds”.

“Rab6a GTPase (from UniProt P20340 1-208)”: the figures for the binding result in [2] and in assay [3] were “binds” and “no binding”, respectively.

For giantin (from UniProt Q14789 1-3259), the binding result in assay [4] is “binds”.

“non-muscle Myosin IIA (NMIIA) heavy chain phosphorylated at S1943 (from UniProt P35579 1-1960)”: the binding entry in assay [5] is “binds”; in [6], “binds weakly”; in [7], “binds”; in assay [8], “binds”; in assay [9], “binds”; in [10] it was “binds”. In addition, the binding result in assay [11] is listed as “binds”; in assay [12], “no binding”; in assay [13], “binds”; in assay [14], “binds”; in assay [4] it was “no binding (condition: control cells without EtOH)”.
